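These data come from cells grown in 96-well plates and exposed to compound for 48 hours at five concentrations. GI50 marks 50% less growth.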 Calls of active or inactive are those of the source. No stated cut-off is given here; in the data, active = GI50 up to about 1.1 µM and inactive = higher. Bounds are passed on as bounds.

This note sets out measurements from ChEMBL document CHEMBL1201862, “PubChem BioAssay data set” (2004).

The test deals with NCI-H322M. Put plainly: NCI tumour cell line growth inhibition, 48 h.
For `CC(=O)Nc1ccc(-c2nc3ccccc3s2)cc1I`, the GI50 is inactive: 31.8 µM.
Then `Nc1nc(Cl)cc(NCCO)n1`, with inactive: > 100 µM; and `N#CC(CC(=O)O)=C(c1ccccc1)c1ccccc1`, with inactive: > 100 µM; and `CCOc1ccc(C2Oc3c(cccc3OC)C=C2[N+](=O)[O-])cc1OCC` (stereo not given), with inactive: 14.3 µM.
Then `CC1CCC(=O)NCCCCC(=O)N1` (stereo not given), with inactive: > 100 µM; and `CO[C@H](c1ccccc1)[C@H](O)[C@](O)(c1ccccc1)P(=O)(OC)OC`, with inactive: > 100 µM.
The figure for `COc1cc(OC)nc(Nc2c(C#N)c3nc4ccccc4n3c3ccccc23)n1` is inactive: 21.6 µM.
As to `O=S(=O)(c1ccccc1)c1nccs1`, the GI50 was inactive: > 100 µM.
The figure for `Cc1[nH]c2ccccc2c1C(=O)/C=C/c1ccccc1O` is inactive: > 100 µM; for `COC(=O)c1c(O)c2c(c3c1OC(C)(C)CC3)OC(C)(C)CC2` it is inactive: 25.2 µM.
`CC(C)=NN/C(=N\c1ccc(Cl)cc1)NS(=O)(=O)c1ccc(Oc2cccc(Cl)c2C#N)cc1`: the GI50 is inactive: > 100 µM.
Turning to `Cc1cc2nc3c(C#N)c(C)c(CCCl)c(Cl)n3c2cc1C`, the GI50 was inactive: 5.82 µM.
Consider `CC(=O)N(CN1C(=O)CCC1C(=O)O)c1ccc(C)cc1` (stereo not given), for which the GI50 was inactive: > 100 µM.
`NC1(c2cc3ccccc3s2)CCCC1`: the GI50 is inactive: 66.7 µM.
For the molecule `COC(=O)/C=C/C(=O)Nc1cc(Cl)c(Cl)cc1CC(=O)N(C)[C@H]1CCCC[C@@H]1N1CCCC1`, the GI50 was inactive: 17 µM.
On to `N#Cc1ccccc1C(Cl)(Cl)c1cnccn1`, for which the GI50 was inactive: > 100 µM.
The figure for `COc1ccc(-c2c(C#N)c(S)n(NS(=O)(=O)c3ccc(C)cc3)c(=O)c2C#N)cc1` is inactive: 69.7 µM; for `Cc1ccccc1-n1c(C)nc2c1C(=O)c1ccccc1C2=O` it is inactive: 81.7 µM.
Then `CC1CCC(=O)C(C(O)CC2CC(=O)N(c3ccccc3)C(=O)C2)C1` (stereo not given), with inactive: > 100 µM; and `C1CSCCSS[C@@H]2CCCCC2SC1` (stereo not given in full), with inactive: > 100 µM.
The figure for `O=C(O)CNCc1c2ccccc2[n+]([O-])c2ccccc12` is inactive: 43.7 µM.
For `CC1=CC[C@H](C(C)C)C(C(O)[C@@H](C)O[Si](c2ccccc2)(c2ccccc2)C(C)(C)C)C1=O` (stereo not given in full), the GI50 was inactive: 23 µM.
For the molecule `O=C(/C=C/c1c(O)ccc2ccccc12)c1cccc2ccccc12`, the GI50 is inactive: > 100 µM.
Regarding `c1ccc(CNc2nncc3[nH]cnc23)cc1`, the GI50 was inactive: > 100 µM.
With `COC(=O)CCCc1nc2ccccc2nc1/N=N/c1ccccc1`, the GI50 is inactive: > 100 µM.
The figure for `Cc1ccc(NC=O)c(-c2c(N)[nH]c(=S)[nH]c2=O)c1` is inactive: > 100 µM; for `NC1=NN(c2ccccc2)C(=O)C1C(=O)C(=O)Nc1ccccc1` (stereo not given) it is inactive: > 100 µM; for `COc1cccc(CC2Cc3ccccc3CC(=O)N2)c1` (stereo not given) it is inactive: 54.2 µM.
For `COC(=O)/C1=C/C2CC(/C=C(/c3ccccc3)C(=O)O1)C2`, the GI50 is inactive: 34.3 µM.
Then `Fc1ccc(/N=N/N2CCCC2)cc1`, with inactive: > 100 µM.
The figure for `Oc1ccc(Cl)cc1/C=N/c1cnc2ccccc2c1` is inactive: 26.6 µM.
Then `C[C@]12CCC3c4ccc(O)cc4CC[C@H]3C1CC(=O)N(CCN1CCCC1)C2=O` (stereo not given in full), with inactive: > 10 µM; and `N#CCCN(CCCN(C(=O)N(c1ccccc1)c1ccccc1)c1ccccc1)C(=O)Nc1ccccc1`, with inactive: > 100 µM; and `O=CNc1cccc2c3c([nH]c12)CCCCCC3`, with inactive: > 100 µM.
Turning to `CC[n+]1c(/C=C/c2ccc(N(CCCl)CCCl)cc2)ccc2cc(I)ccc21`, the GI50 was inactive: 2.14 µM.
The figure for `COC(=O)C(=O)C(C#N)c1c(Cl)cccc1Cl` (stereo not given) is inactive: > 100 µM; for `O=C1C2=C(C(c3ccccc3)=C1c1ccccc1)c1ccccc1C1(c3ccccc3)C2=C(O)C(c2ccccc2)=C1c1ccccc1` (stereo not given) it is inactive: > 100 µM.
Then `COc1cc(Br)cc2nc(-c3cccs3)oc12`, with inactive: > 100 µM; and `COC(=O)C1=C(O)C(C(=O)OC)[C@]2(O)[C@H](C(=O)OC)[C@H]1C[C@@H](c1cccc(OC)c1)[C@H]2C(=O)OC` (stereo not given in full), with inactive: 28.1 µM.
With `N/N=C(\C(=O)Nc1ccc(Cl)cc1Cl)C(c1cnc2ccccc2n1)[N+](=O)[O-]` (stereo not given), the GI50 is inactive: > 100 µM.
The figure for `COC(=O)C(Cc1ccccc1)NS(=O)(=O)c1ccc(-c2c3nc(c(-c4ccc(S(=O)(=O)NC(Cc5ccccc5)C(=O)OC)cc4)c4ccc([nH]4)c(-c4ccc(S(=O)(=O)NC(Cc5ccccc5)C(=O)OC)cc4)c4nc(c(-c5ccc(S(=O)(=O)NC(Cc6ccccc6)C(=O)OC)cc5)c5ccc2[nH]5)C=C4)C=C3)cc1` (stereo not given) is inactive: > 100 µM; for `COc1cc(-c2c(C)c(C)nc(OC)c2C#N)cc(OC)c1OC` it is inactive: > 100 µM; for `O=C(CCCCCC(=O)N1CC(CCl)c2ccc([N+](=O)[O-])cc21)N1CC(CCl)c2ccc([N+](=O)[O-])cc21` (stereo not given) it is inactive: > 100 µM.
In the case of `CCC(CCN)(CCN)[N+](=O)[O-]`, the GI50 was inactive: > 100 µM.
For `COc1ccc(Oc2cnn(C(Br)(Br)C(C)=O)c(=O)c2Br)cc1`, the GI50 is inactive: 40.1 µM.
Then `Cc1ccc(-c2nc3ccccc3c(=O)n2NC2OC(CO)C(O)C(O)C2O)cc1` (stereo not given), with inactive: > 100 µM; and `CCOC(=O)[C@@]12CCC(C1=O)[C@](C)(O)C[C@@H]2c1ccccc1`, with inactive: 85.3 µM; and `CCOC(=O)c1nc2ccc(C(F)(F)F)cc2nc1Nc1cc(OC)c(OC)c(OC)c1`, with inactive: > 100 µM.
Take `COc1ccc2c(-c3csc(-c4c[nH]c5ccccc45)n3)c[nH]c2c1`: the GI50 is inactive: 7.55 µM.
The figure for `CC1=CC2=C(OCO1)C(=O)c1ccccc1C2=O` is inactive: 13.6 µM; for `CCCc1nc(NC#N)nc(C(=O)Nc2ccccc2)c1CC` it is inactive: > 100 µM; for `c1cc2[se][se]c3c4cccc5[se][se]c(c(c1)c23)c54` it is inactive: > 100 µM.
For `C=C(C(N)=O)c1ccc([N+](=O)[O-])o1`, the GI50 was inactive: 22.1 µM.
As to `N#Cc1c(N)nc2[nH]nc(N)c2c1-c1ccc(Cl)cc1`, the GI50 is inactive: 11 µM.
As to `CN1C/C(=C\c2ccc(C(=O)O)cc2)C(=O)/C(=C/c2ccc(C(=O)O)cc2)C1`, the GI50 was inactive: > 100 µM.
Then `CCOC(=O)Nc1ccc(S(=O)(=O)I)cc1.CCOC(=O)Nc1ccc(S(=O)(=O)I)cc1.CNC(=O)N=O.NC(=O)OCCCl`, with inactive: > 100 µM; and `O=c1c2ccccc2[nH]c2cc(O)cc(O)c12`, with inactive: > 100 µM; and `N#C/C(=C\c1ccc(O)cc1)C(N)=O`, with inactive: > 100 µM.
As for `Cc1cc(-c2nc3c(F)cccc3s2)ccc1N`, the GI50 was inactive: 23.2 µM.
Then `CC(C)C[C@H](NC(=O)[C@H](Cc1cccc2ccccc12)NS(=O)(=O)c1cccc2cccnc12)B(O)O`, with active: 0.637 µM.
